Among all 310,000 compounds or so, about 14,000 (4.5%) showed an effect of 50% or more. The effect is printed as a negative number. Some of the results follow.
biological target: human ether-à-go-go-related gene (hERG) potassium channel (human, UniProt Q12809); assay: primary screen, population patch clamp on CHO cells stably expressing hERG
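Also: peak tail current of the secondary pulse compared with the same well before compound.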

Chain of human ether-à-go-go-related gene (hERG) potassium channel (Q12809 whole entry, looked up): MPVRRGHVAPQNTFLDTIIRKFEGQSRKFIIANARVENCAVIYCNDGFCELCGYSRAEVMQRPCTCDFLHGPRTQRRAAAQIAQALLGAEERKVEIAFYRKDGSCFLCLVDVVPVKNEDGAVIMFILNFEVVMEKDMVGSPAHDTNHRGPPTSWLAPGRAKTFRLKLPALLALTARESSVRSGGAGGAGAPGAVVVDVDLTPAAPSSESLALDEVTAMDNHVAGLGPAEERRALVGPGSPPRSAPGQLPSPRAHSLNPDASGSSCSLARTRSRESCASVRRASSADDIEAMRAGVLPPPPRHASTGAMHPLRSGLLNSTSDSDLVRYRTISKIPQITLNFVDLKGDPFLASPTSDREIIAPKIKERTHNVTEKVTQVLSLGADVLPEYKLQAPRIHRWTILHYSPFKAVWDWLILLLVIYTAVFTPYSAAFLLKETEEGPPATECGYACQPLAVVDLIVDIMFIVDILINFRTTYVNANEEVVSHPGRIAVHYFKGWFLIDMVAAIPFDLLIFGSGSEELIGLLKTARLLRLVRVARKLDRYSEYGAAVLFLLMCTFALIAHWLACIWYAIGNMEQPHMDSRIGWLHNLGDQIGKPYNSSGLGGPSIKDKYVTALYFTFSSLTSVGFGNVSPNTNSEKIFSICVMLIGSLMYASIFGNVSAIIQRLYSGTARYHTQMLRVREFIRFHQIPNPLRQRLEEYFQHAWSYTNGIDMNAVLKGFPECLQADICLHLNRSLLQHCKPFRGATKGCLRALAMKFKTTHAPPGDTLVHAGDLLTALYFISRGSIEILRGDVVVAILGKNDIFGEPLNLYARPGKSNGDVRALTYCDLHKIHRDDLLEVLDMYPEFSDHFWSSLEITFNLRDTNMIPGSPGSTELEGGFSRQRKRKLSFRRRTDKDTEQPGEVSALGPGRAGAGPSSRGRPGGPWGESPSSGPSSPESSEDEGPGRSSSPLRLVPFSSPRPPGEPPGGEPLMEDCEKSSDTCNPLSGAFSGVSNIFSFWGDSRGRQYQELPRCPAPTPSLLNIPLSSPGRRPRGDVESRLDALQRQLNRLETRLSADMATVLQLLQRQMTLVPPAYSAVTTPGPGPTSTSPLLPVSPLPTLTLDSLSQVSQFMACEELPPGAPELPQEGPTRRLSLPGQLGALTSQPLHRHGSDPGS

Compound | hERG current change (%, negative = inhibition) at 10uM
Cc1cc(C)n2nc(-c3ccsc3-n3c(C)ccc3C)cc2n1 | 4.45%
CCOc1ccc2nc(NC(=O)CSc3nnnn3C3CCCCC3)sc2c1 | -1.6%
O=C(Nc1ccc2c(c1)OCO2)c1ccc(Br)o1 | 0.436%
C=CCN1N=C(/C=C/c2ccccc2)CCC1=O | -4.77%
CCOC(=O)N1CCN(c2c(NCCN(C)Cc3ccccc3)c(=O)c2=O)CC1 | 0.413%
NS(=O)(=O)c1ccc(CCNC(=O)CN2CCN(c3ccccc3F)CC2)cc1 | 18.7%
COc1ccc(/C=C/C(=O)NC(C)(C)C)cc1S(=O)(=O)N1CCOCC1 | -15.2%
Cc1ccc(NC(=O)c2sccc2-n2cccc2)c(Cl)c1 | -8.15%
COC(=O)c1ccc(OCCN2CCCCCC2)cc1.O=C(O)C(=O)O | -1.51%
OCCC1CN(Cc2cccc3nccnc23)CCN1Cc1ccc(F)cc1 (centres unmarked) | -30.8%
Cc1cc(C)c2[nH]c(C(=O)Nc3ccc4c(c3)OCO4)cc2c1 | 11.3%
C[C@]12CC[C@H](O)C[C@H]1CC[C@@H]1[C@@H]2CC[C@]2(C)[C@@H](C3=CC(=O)OC3)CC[C@]12O | 15.8%
[Br-].c1cnc(N2CC[N+]3(CCCC3)CC2)nc1 | 4.47%
O=C1/C(=C\c2cccc([N+](=O)[O-])c2O)SC(=S)N1Cc1ccccc1 | 28%
O=C(Cc1ccsc1)NNC(=O)c1cccc(Cl)c1 | 6.9%
O=C(NCc1ccc(Cl)cc1)c1cc2ccccc2oc1=O | 6.97%
COc1ccc(C)cc1NC(=O)C(=O)NCc1ccncc1 | -10.6%
CC1=C(C(=O)OC2CCCCC2)C(c2ccccc2F)NC(=O)N1 (centres unmarked) | 1.77%
NNC(=O)c1csc(-c2ncc(C(F)(F)F)cc2Cl)n1 | 9.63%
CS(=O)(=O)Cc1nc2ccccc2oc1=O | 9.72%
CCOc1cc(C(=O)N2CCN(c3ccccc3)CC2)cc(OCC)c1OCC | 10.7%
COc1ccc(-c2cc(=O)oc3c(C)c(OCC(=O)Nc4cccnc4)ccc23)cc1 | -11.6%
Cc1ccc(N2C(S)=C(C#N)C(=O)NC23CCCCC3)cc1 | 20.8%

Compound | hERG current change (%, negative = inhibition) at 10uM
O=C(CN1c2cccc3cccc(c23)S1(=O)=O)Nc1ccccc1F | 19.5%
CCOC(=O)c1ccc(NCc2ccc3c(c2)OCO3)cc1 | 24.1%
CCSc1nnc(C(N)Cc2ccccc2)o1.Cl (centres unmarked) | 13.3%
CCOC(=O)N1CCN(C(=O)c2cn(C)c3ccc(S(=O)(=O)N4CCC(C)CC4)cc3c2=O)CC1 | -1.12%
Cn1c(N)c(C(=O)COC(=O)Cc2ccsc2)c(=O)n(C)c1=O | -35.9%
O=C(CSc1nnnn1-c1cccnc1)Nc1ccc(F)cc1F | 15.4%
CCN(CCn1cccn1)C(=O)C1CCC(=O)N(CC2CCCCC2)C1 (centres unmarked) | 15.1%
CC1CCCN(CC(O)COc2ccc(S(=O)(=O)N3CCCC3)cc2[N+](=O)[O-])C1 (centres unmarked) | -14.6%
CCn1nc(C(=O)Nc2cccc(C(F)(F)F)c2)c(Cl)c1Cl | 21.3%
O=C(Nc1ccccc1)c1cccc(S(=O)(=O)NCc2ccco2)c1 | -9.13%
CCOc1ccc(CC2S/C(=N/N=C/c3ccco3)NC2=O)cc1 (centres unmarked) | 17.2%
COc1ccc(N2CCN(C(=O)CN(CCc3ccccc3)S(C)(=O)=O)CC2)cc1 | -12.2%
COc1cc(CN(CCc2c(C)[nH]c3ccc(C)cc23)C(=S)NC(C)(C)C)cc(OC)c1OC | 9.34%
CCC(C(=O)Nc1cccnc1)c1ccccc1 (centres unmarked) | 15.6%
CC1CCN(C(=O)CCl)CC1 | 20.2%
CN(C(=O)COC(=O)c1ccc(-c2ccc(O)cc2)cc1)C1CCS(=O)(=O)C1 (centres unmarked) | 10.8%
Cc1ccc(NC(=O)COS(=O)c2ccc(C)cc2)cc1 (centres unmarked) | -7.21%
OCCN=C1CCCc2c1[nH]c1ccc(Br)cc21 | 6.45%
CC(=O)N1c2ccc(S(=O)(=O)N3CCC(C(=O)Nc4ccccn4)CC3)cc2CC1C (centres unmarked) | 17.6%
CCOCCCNC(=O)C1CCCN1C(=O)Nc1ccccc1[N+](=O)[O-] (centres unmarked) | 5.03%
COc1ccc(-c2nc(-n3c(C)c(C(C)=O)c(C(C)=O)c3C)sc2C)cc1OC | -1.38%
O=C(c1ccc(Cl)c(NC2=NC3CS(=O)(=O)CC3S2)c1)N1CCN(c2ccc(F)cc2)CC1 (centres unmarked) | 17.6%
COc1ccccc1C(=O)Nc1cc(Cl)ccc1O | 11.2%

Compound | hERG current change (%, negative = inhibition) at 10uM
CCCn1c(C(CO)Nc2nc(-c3cccc(Br)c3)cs2)nc2ccccc21 (centres unmarked) | -2.42%
COc1ccc2c3n([n+]([O-])c2c1)CCN=C3c1ccc(C)cc1 | -8.96%
CC(=O)OC1C2CCCC1C([NH+]1CCCC1)CC2.[Cl-] (centres unmarked) | 3.57%
COc1ccc(/C=N/OC/C(O)=C(\C#N)c2nc3ccccc3[nH]2)cc1OC | -3.67%
CCOc1cc(Br)c(CN2C(=O)NC3(CCCCCC3)C2=O)cc1OCC | 18.4%
CCCCNC(=O)c1onc(CSc2cccc(OC)c2)c1C(=O)NCCCC | -15.2%
O=c1[nH]nc(Cc2ccc(-c3ccccc3Cl)o2)c2ccccc12 | 4.34%
CCOc1ccc(NC(=O)N2CCN(C(=O)c3ccco3)CC2)cc1 | 3.54%
Fc1cccc2sc(N3CCCCC3)nc12 | 12.8%
COc1ccc(-n2nc3cc(C)c(N)c(Br)c3n2)cc1 | 8.19%
CCn1nnnc1NCc1cccn1C | 15.9%
CCOC(=O)C1CCCN(C(=O)c2cc(-c3ccccc3)on2)C1 (centres unmarked) | -15%
CC1CCCC(NCC(=O)Nc2ccc(C(N)=O)cc2)C1C (centres unmarked) | 5.44%
Cc1ccc(NC(=O)CSc2nnc(-c3cc(C)[nH]n3)n2N)c(C)c1 | 14.6%
C/C(CC(=O)Nc1ccccc1F)=N\NC(=O)Cc1ccc(Cl)cc1 | -4.52%
O=C(CSc1nnc(C2COc3ccccc3O2)o1)Nc1nccs1 (centres unmarked) | 7.26%
COc1cccc(/C=N/NC(=O)C(=O)Nc2ccccc2OC(F)(F)C(F)F)c1O | 0.623%
Cc1sc2nc(-c3ccccn3)[nH]c(=O)c2c1-c1ccccc1 | 20.9%
COc1cccc(CCc2nc3ccccc3c(=O)n2N)c1 | 6.13%
CCN(C(=O)COC(=O)c1ccccc1SCC(=O)NC1CCCCCCC1)C1CCS(=O)(=O)C1 (centres unmarked) | -15.3%
Cc1nc2ccccc2nc1OCC(=O)NCC(F)(F)F | 4.95%
COc1cc(NC(=O)C2CC(=O)N(Cc3ccco3)C2)cc(OC)c1 (centres unmarked) | -6.64%
CC(OC(=O)C1CC(=O)N(Cc2ccco2)C1)C(=O)Nc1ccccc1[N+](=O)[O-] (centres unmarked) | -19.1%

Compound | hERG current change (%, negative = inhibition) at 10uM
O=C(CSc1nnc(NC(=O)c2cccc(F)c2)s1)NCC1CCCO1 (centres unmarked) | 19.1%
CCOc1cccc(N2C(=O)CC(N3CCN(c4ccc(S(=O)(=O)CC)cc4)CC3)C2=O)c1 (centres unmarked) | -38.3%
CCCCCCC(=O)N/N=C/c1c(O)n(C2CC2)c(=S)[nH]c1=O | -4.67%
CCOc1cc2[nH]c(=O)n(CCCCC(=O)NC3CCCCCC3)c(=O)c2cc1OCC | -0.757%
CC(C)[C@H](N)c1nnc2n1N=C(c1ccc(Cl)cc1)CS2.Cl | -18%
CCOCCN1CCN(c2nnc3n2-c2ccc(Cl)cc2C(c2ccccc2Cl)=NC3)CC1.O=CO | -76.5%
COc1ccc(Cl)cc1NC(=O)CN(C)Cc1ccc(OC)c(OC)c1 | -9.72%
CCCCN(CCCC)S(=O)(=O)c1ccc(N2CCCC2=O)c([N+](=O)[O-])c1 | -1.42%
O=C(Nn1cnnc1)c1ccc([N+](=O)[O-])cc1Cl | 8.54%
CCN(C(=O)COC(=O)c1[nH]c(C)c(C(C)=O)c1C)C1CCS(=O)(=O)C1 (centres unmarked) | -8.32%
COc1ccc(C2=NCCn3cccc32)c(OC)c1 | -49.2%
O=C(CSc1nccc(=O)[nH]1)N1c2ccccc2CCc2ccccc21 | 4.63%
N#C/C(=C\c1ccc(-c2cccc([N+](=O)[O-])c2)o1)c1nnc(N2CCOCC2)n1-c1ccccc1 | -31.2%
Cl.O=C(CSc1nc2ccccc2[nH]1)N1CCN(C(=O)c2ccco2)CC1 | -23.4%
CC(C)NP(=O)(NC(C)C)OP(=O)(NC(C)C)NC(C)C | -0.00312%
COC(=O)c1ccc(NC(=O)c2cn(-c3ccccc3)nc2-c2ccncc2)cc1 | -10.2%
CCc1nnc(SCc2ccc(C(=O)OC)o2)n1N.Cl | 12%
O=S(=O)([N-]c1nc2ccccc2nc1-[n+]1ccccc1)c1ccc(F)cc1 | 8.09%
C=CCOC(=O)CCCC(=O)NC1CCCCC1 | -4.26%
COc1cc(OC)cc(C(=O)N[C@H](C(=O)NCCc2c[nH]c3ccccc23)C(C)C)c1 | 10.1%
